# Experimental data from patent US20100016335A1, “NOVEL AMINOPYRIDINE DERIVATIVES HAVING AURORA A SELECTIVE INHIBITORY ACTION” (priority 2006, published 2010).
# Tested on: Human cervical cancer cells (HeLa S3)
# Test: Effect by combined use of drugs in cells (docetaxel), WST-8 method
# Type: cell-based
# Conditions: docetaxel 0.3 nM alone, HeLa S3, three days; DMSO = 0%
# Experimental: Fetal calf serum (FCS) was purchased from Moregate Biotech, DMEM medium from Invitrogen Corp., docetaxel (tradename: Taxere) from Sigma-Aldrich, Inc., and WST-8 from Kishida Chemical Co., Ltd.
# Human cervical cancer cells (HeLa S3) were obtained from the American Type Culture Collection (ATCC).
# Cells were suspended in a DMEM medium containing 10% FCS, and the cell suspension was dispensed to two 96-well plastic plates at a rate of 750 cells/100 microliters per well. The plates were incubated overnight in 5% CO2-95% air at 37° C. A drug was subjected to graded dilution in dimethylsulfoxide and further diluted with DMSO or with a DMEM medium containing 10% FCS and also containing 0.6 nM docetaxel. […] Cell growth after incubation was measured by the WST-8 method (H. Tominaga, et al., Anal. Commun., 36, 47-50 (1999)). Here, the WST-8 method refers to a method in which 20 microliters of a WST-8 reagent solution is added to each well, incubation is conducted at 37° C. for 60 minutes, the plate is stirred, and the amount of formazan produced is measured by a colorimetric method to determine the inhibitory rate of the drug. The growth inhibitory effects of docetaxel and of the compound according to the invention were determined, with the value obtained in sole treatment of DMSO being defined as 0%.
smiles,measurement,value
"CC(=O)O[C@@]12CO[C@@H]1C[C@H](O)[C@@]1(C)C(=O)[C@H](O)C3=C(C)[C@@H](OC(=O)[C@H](O)[C@@H](NC(=O)OC(C)(C)C)c4ccccc4)C[C@@](O)([C@@H](OC(=O)c4ccccc4)[C@H]21)C3(C)C [docetaxel, reference compound]",Cell growth inhibitory effect by sole administration of docetaxel (0.3 nM) (%),"52.1, 53.4, 49.6, 48.9% [lines of one column]"

# For part of its entries the source gives two or more results. They are shown here; other results are not. The source may hold further records. Values given together read as repeated measurements on other runs, samples or individuals; one of them may be the mean.
